From article PMC7819943, “Rice protein-binding microarrays: a tool to detect cis-acting elements near promoter regions in rice”
Some of the results follow.

target: T1, OsWOX13 (Oryza sativa, UniProt Q5QMM3 1-267); assay: protein-binding microarray (RPBM); PBS, 2% BSA, 51.3 ng/ul salmon testes DNA, 50 uM zinc acetate, 200 nM TF, 25 C, 1 h; high values mean tight binding; conditions: protein: recombinant; tags: N-terminal polyhistidine and DsRed monomer fusion (pET32a); label: CyDye5-dUTP incorporated in the synthesized complementary strand; 3' TTTTT single-stranded linker to array surface; dsDNA, one strand shown
T1 sequence: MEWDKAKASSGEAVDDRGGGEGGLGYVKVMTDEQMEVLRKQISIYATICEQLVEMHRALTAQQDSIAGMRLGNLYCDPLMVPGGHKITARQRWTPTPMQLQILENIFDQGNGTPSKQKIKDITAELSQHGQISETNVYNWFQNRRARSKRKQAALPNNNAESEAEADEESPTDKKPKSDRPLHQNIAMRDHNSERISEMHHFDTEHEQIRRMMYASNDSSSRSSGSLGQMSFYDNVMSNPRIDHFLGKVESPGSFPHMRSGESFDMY
Procedure, shortened: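 The binding signal is fluorescence intensity per feature, in arbitrary units, read on an Axon 4000B scanner. Polyhistidine- and DsRed-tagged transcription factors (N-terminal fusions) from E. coli BL21-CodonPlus were purified on Ni–NTA and applied at 200 nM for 1 h at 25 °C to a double-stranded, BSA-blocked custom Agilent array in buffer with 50 µM zinc acetate.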

Sequence	binding signal
AAATCAACTAAATTTACAAATATAATTTTAGTTATATATGCGGAGTCACCTAGTGCAG	9790 fluorescence intensity (a.u.)
AAAGGATCAAATTGACCGTATTAATAATACGCTTACTTTGCGGAGTCACCTAGTGCAG	5630 fluorescence intensity (a.u.)
CTGATAGATTAATCTTATGGGTGCAGGTGGCAATAGCCGACGGAGTCACCTAGTGCAG	41200 fluorescence intensity (a.u.)
GTTAAATCACAGCCTACAGATTTTCGACCTTCAAAGGAGGCGGAGTCACCTAGTGCAG	5480 fluorescence intensity (a.u.)
TCATAAATTTGCCAAATTTGAGCACTTTGCCTATACACTACGGAGTCACCTAGTGCAG	20000 fluorescence intensity (a.u.)
ATCTAATTACCTCGAAAATACATATGGGCACGCGGTAGCTCGGAGTCACCTAGTGCAG	18500 fluorescence intensity (a.u.)
CGACGATGATGATGATGATGACGATGACGAAGAAGATGGCCGGAGTCACCTAGTGCAG	10600 fluorescence intensity (a.u.)
CACCAACATTCTATTTTCAACCAATCACAACCCTTTACCACGGAGTCACCTAGTGCAG	5180 fluorescence intensity (a.u.)
TTTACTTTTAGATTGATAAGAACACATATATAAAAGTTTTCGGAGTCACCTAGTGCAG	12200 fluorescence intensity (a.u.)
TAGAATTATTATTTATTTTATTTGTGACTTACTTTATTATCGGAGTCACCTAGTGCAG	3160 fluorescence intensity (a.u.)
ATGATACGAGTATTAAAACTAATTAGTAATAAATCCTCTGCGGAGTCACCTAGTGCAG	3840 fluorescence intensity (a.u.)
AACATAACTTAATTTGTATGAATATGTGTGTTATTAATTGCGGAGTCACCTAGTGCAG	11900 fluorescence intensity (a.u.)
TGCATGTAATTAGAATTAAAGAAAACTAATTAAAGATGGACGGAGTCACCTAGTGCAG	16500 fluorescence intensity (a.u.)
ACTTTTAACTGCTAGTCATCAACTCATCAGCAACTATCTACGGAGTCACCTAGTGCAG	13500 fluorescence intensity (a.u.)
ATAAACTAATAACAAAACAAATTACATATTCCGCCTGTAACGGAGTCACCTAGTGCAG	10100 fluorescence intensity (a.u.)
TCAAATTTAAATCTTAATCTCATTATCAATTCCTTCGTGTCGGAGTCACCTAGTGCAG	11000 fluorescence intensity (a.u.)
TTAGGAGTAATTGGATATCATAAACAGGAAATTACTGCAGCGGAGTCACCTAGTGCAG	20800 fluorescence intensity (a.u.)
ATCATGGACTAATTAGGCTCAAAAGATTCATCTTGCGATTCGGAGTCACCTAGTGCAG	5920 fluorescence intensity (a.u.)
CATTACCAATCAATTTTGCTATATATTTATCGATAAATTTCGGAGTCACCTAGTGCAG	20700 fluorescence intensity (a.u.)
CCATCTGATTAGAGATTTGATCCTATACCTTCCTAAACATCGGAGTCACCTAGTGCAG	40700 fluorescence intensity (a.u.)
TGATAATAATCATATAATCACTGATGTTACTCATGTGGTACGGAGTCACCTAGTGCAG	19800 fluorescence intensity (a.u.)

Sequence	binding signal
CTAATTAACATTAAACATTTGTGGAAGGAGGTAATGGTACCGGAGTCACCTAGTGCAG	21600 fluorescence intensity (a.u.)
TGTAAACTTAAGTTTAAAATTTCAAATTTTGGCTGTGGCTCGGAGTCACCTAGTGCAG	5380 fluorescence intensity (a.u.)
ATTAATTAGGTTTAATAAATTCGTCTCGCGGTTTACTAATCGGAGTCACCTAGTGCAG	22600 fluorescence intensity (a.u.)
ATATAATCCCTGGCTTTGATTTGTTTAGTAGTACCATTTACGGAGTCACCTAGTGCAG	4260 fluorescence intensity (a.u.)
CAAATTGACAAAGCACATTCGTTTCCTCACTCGTGTTTTACGGAGTCACCTAGTGCAG	24900 fluorescence intensity (a.u.)
CAAATTAATTAATAAGAGAAAACAAACTGTTCGACCCATCCGGAGTCACCTAGTGCAG	36200 fluorescence intensity (a.u.)
CTAAACAGGTAGCTGAGAGGTAGCTGAGAAGATCCAGGCCCGGAGTCACCTAGTGCAG	9300 fluorescence intensity (a.u.)
CAATATAATATAATAGTTAATTTGCTGCTACAGTTGTTACCGGAGTCACCTAGTGCAG	10000 fluorescence intensity (a.u.)
GTAATAATTTTGTCATCCACTCCTGTATCTGTACGAGTTTCGGAGTCACCTAGTGCAG	10300 fluorescence intensity (a.u.)
TTCAAACTGATTGTGACGTGTAACCAATTTCATTTGTCACCGGAGTCACCTAGTGCAG	27300 fluorescence intensity (a.u.)
CCATCAATTTTCATTTACATCGACAGTAATTCGATTACTACGGAGTCACCTAGTGCAG	6400 fluorescence intensity (a.u.)
ATGATGATGATGAGGAGGAGACTCTCTCACCTTCTCACGCCGGAGTCACCTAGTGCAG	11100 fluorescence intensity (a.u.)
AATGCTAAAATGATTTACACCGTGAAACGGAGGGAGTACCCGGAGTCACCTAGTGCAG	5510 fluorescence intensity (a.u.)
ATTATTTAGTAAAATTGATAAATATATGATATTATTTAGTCGGAGTCACCTAGTGCAG	6560 fluorescence intensity (a.u.)
AAATGCTAATTGCACAGTTTGCATGTAAATTGCGAGACGACGGAGTCACCTAGTGCAG	10200 fluorescence intensity (a.u.)
ATAATCATGATAATGACATGCTAATGATCATTCATGTGAACGGAGTCACCTAGTGCAG	17900 fluorescence intensity (a.u.)
AATATGATTATCAAAACTAGATAGAGGGAGTATTAGGAAACGGAGTCACCTAGTGCAG	19500 fluorescence intensity (a.u.)
CATCTAACCAATTAAGCCCACAGAAGCGATTCGGCTCGGCCGGAGTCACCTAGTGCAG	4000 fluorescence intensity (a.u.)
TAGTAATTTCACATCAGGTTCATCGAAGCATCGATCTTGTCGGAGTCACCTAGTGCAG	3860 fluorescence intensity (a.u.)
CATCAATTTGGTATCCTCACTTTGAATTGTTTTCATTGTCCGGAGTCACCTAGTGCAG	4020 fluorescence intensity (a.u.)
TAGTTAAATTTAGAGTAGTTAAAACGACTTATAACCTGGACGGAGTCACCTAGTGCAG	3570 fluorescence intensity (a.u.)

Sequence	binding signal
TTATCTATTTATTTATTTATTATTTTATTATTTTGTCTCGCGGAGTCACCTAGTGCAG	3450 fluorescence intensity (a.u.)
GGAAATTTAACTATTTGCCACTTTTAGGTTTATCAATTATCGGAGTCACCTAGTGCAG	4880 fluorescence intensity (a.u.)
CTAGAATTATTAATTCAAGAAATTATAAGGGGTTACATACCGGAGTCACCTAGTGCAG	8480 fluorescence intensity (a.u.)
CTTATTATAAAGATTTAATTATAACAAATATAATGGTATGCGGAGTCACCTAGTGCAG	4800 fluorescence intensity (a.u.)
GGGAGATGGGAGATTGGAGAAGATAGAGGAGAGAACTGTTCGGAGTCACCTAGTGCAG	4420 fluorescence intensity (a.u.)
AGGGGATTAAATAATTGCAAATCCGAATAATAAAAGAAATCGGAGTCACCTAGTGCAG	4330 fluorescence intensity (a.u.)
CTCTAAATTTGCAAATTCTACATATGCAGCTGCAGGAAAACGGAGTCACCTAGTGCAG	12700 fluorescence intensity (a.u.)
TCTCCTACTTGATTGGAAAATGTTCTTGATGAGAAATTAACGGAGTCACCTAGTGCAG	22400 fluorescence intensity (a.u.)
AATTCAAATTAAGTAGAAATTAAAATTAAATTCCAAGAGCCGGAGTCACCTAGTGCAG	18300 fluorescence intensity (a.u.)
TGTGATAAATTTGGTGTTAAATGTGTAGTTTTGTGATACACGGAGTCACCTAGTGCAG	16000 fluorescence intensity (a.u.)
CATGGGAGAGGGGTGTAGAATAGTTATTCTAGGGGAGGGGCGGAGTCACCTAGTGCAG	3560 fluorescence intensity (a.u.)
TAATTGATGGTATGGATTTAGTCAAATCCACCTGGTGGAGCGGAGTCACCTAGTGCAG	3280 fluorescence intensity (a.u.)
TAATAGTTAGATAGATAGATAGATGCGAGATGGTCCATCGCGGAGTCACCTAGTGCAG	11600 fluorescence intensity (a.u.)
AGTCTTTAATTATATCAAGAACTAAGTGTGGCTCGTTTTCCGGAGTCACCTAGTGCAG	8720 fluorescence intensity (a.u.)
CCACACAGTCAATTAGGCCCATTTGGCCCGAGACCAGTTCCGGAGTCACCTAGTGCAG	8510 fluorescence intensity (a.u.)
TTTACAATTATATCACACAATCAAGTGAGTTGTATTGGATCGGAGTCACCTAGTGCAG	8390 fluorescence intensity (a.u.)
TATATATATATATATATATGGGTGGTGTTCTTTTCTCTGGCGGAGTCACCTAGTGCAG	17400 fluorescence intensity (a.u.)
ATTTAACGTCATTTATAAACATATACTAGATACTAGTAATCGGAGTCACCTAGTGCAG	3890 fluorescence intensity (a.u.)
CGGCAAACTTTTGTCAATTAATATTAATACTGGACTACATCGGAGTCACCTAGTGCAG	4670 fluorescence intensity (a.u.)
CATGACGTAATTTTACATCCGTATCTGACGGTTGGTTTCACGGAGTCACCTAGTGCAG	12900 fluorescence intensity (a.u.)
GAATAAATGGATATATTGTGTGTCGCTGTTGTATACAGTGCGGAGTCACCTAGTGCAG	10100 fluorescence intensity (a.u.)

Sequence	binding signal
TATGAATGTAATTTCATGTATGTCTAAGTAATGAAAATGTCGGAGTCACCTAGTGCAG	3140 fluorescence intensity (a.u.)
ATCGTATCATTGATTTTCACTTAATATGGTGGACCCATCACGGAGTCACCTAGTGCAG	12700 fluorescence intensity (a.u.)
CGTTAATTGCTATGTCACAAGAGTGGCAAATAGTTAAATTCGGAGTCACCTAGTGCAG	17900 fluorescence intensity (a.u.)
GCTTTAATGGCAATCAAATCTGTTCATCCAAGGAGATTATCGGAGTCACCTAGTGCAG	15900 fluorescence intensity (a.u.)
TTGCTAAATTAACTTATAGCAGGACCTAGTAATGAAAGATCGGAGTCACCTAGTGCAG	5780 fluorescence intensity (a.u.)
TCTAATTTTAGCTTTTGATTTGGTTTATTATGTCAACTGACGGAGTCACCTAGTGCAG	3660 fluorescence intensity (a.u.)
ATTAATTATTACTACTAGTACTACCTAGTAGCTAGTATACCGGAGTCACCTAGTGCAG	17000 fluorescence intensity (a.u.)
TACTATAATTTGACCTCACGCCCTTGAGTTCATTGAGGATCGGAGTCACCTAGTGCAG	5680 fluorescence intensity (a.u.)
GCCATGCTGATTGCAATTTGGGGATTTATTTCGTATCTGTCGGAGTCACCTAGTGCAG	36800 fluorescence intensity (a.u.)
GCGGATAATTAAGACAAGCAGACATGGTCACAAGAAGAAGCGGAGTCACCTAGTGCAG	5640 fluorescence intensity (a.u.)
TTGGAGATGATTGATTGGAAATCTTCTTCCAGTCTCCTCTCGGAGTCACCTAGTGCAG	61700 fluorescence intensity (a.u.)
TTTAAGCCTAATTGCGTCATGATTTGACAATGTGATACTACGGAGTCACCTAGTGCAG	17800 fluorescence intensity (a.u.)
CGAGGGGCTGATCAGCTTCTGCCGGCAGCCGACGTTCGTGCGGAGTCACCTAGTGCAG	6720 fluorescence intensity (a.u.)
GGTGCGACGGCTTGGTTGATTGGGTGACGGGTGGGATTTGCGGAGTCACCTAGTGCAG	13700 fluorescence intensity (a.u.)
CAGCATCACTAATTTGTCTGAATTCTATATTCCATGCTCGCGGAGTCACCTAGTGCAG	3950 fluorescence intensity (a.u.)
AGTAAATAAACTGTTGGAATGGATAAACCGGAGCTACGAGCGGAGTCACCTAGTGCAG	7810 fluorescence intensity (a.u.)
GTGATAATTGCAAAATTAGGAATTATGCAAGGGGTGTAGACGGAGTCACCTAGTGCAG	49400 fluorescence intensity (a.u.)
TATGATGGAAATCCATATATCCCAGATGGGTGTAAAGGTACGGAGTCACCTAGTGCAG	5680 fluorescence intensity (a.u.)
ATGCACGGTGATCTAATTAAGCTACTTCTGCTTAACTGCACGGAGTCACCTAGTGCAG	3560 fluorescence intensity (a.u.)
TTATCAATGACGAGTAAATTTTGGCGGTCATTTCTTAATCCGGAGTCACCTAGTGCAG	13600 fluorescence intensity (a.u.)
GGTCTTTGATTGATGAACCAGCAGTGGCGCCAATCCATCCCGGAGTCACCTAGTGCAG	40100 fluorescence intensity (a.u.)
